Reference: the supplement of paper PMC7826260
The list shows a part of the results. Each Rep nickase domain was tested in vitro on the same pool of single strands at 3 µM enzyme and 37 °C for 1 h; the strands have 90 letters, of which the middle is given. The score is log2 (uncut reads / reads without enzyme); the lower, the more was cut; hits are not called. Because reads are shares of a total, they shift together; where an enzyme cuts many sequences, the uncut ones exceed 0.

Assays:
Test in all cases: uncleaved DNA left, log2 of reads against the no-enzyme library (log2 ratio); higher = less cleavage (more negative = more Rep cleavage of the k-mer); sequences stand for … in CTCGTCCG…ACCGGAGA
[1] = system: T1, Rep nickase domain of Muscovy duck circovirus
T1 sequence (residues 1-111 of Rep, tag left off): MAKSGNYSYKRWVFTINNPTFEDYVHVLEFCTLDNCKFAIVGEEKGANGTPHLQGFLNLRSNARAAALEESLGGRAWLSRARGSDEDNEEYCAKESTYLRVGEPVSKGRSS
Experimental: (§1)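 A pool of 90-nt single-stranded DNAs with seven random bases just before the constant AC of the nick site (name = the seven bases) was cut by 3 µM recombinant His6-SUMO-tagged Rep nickase domain (300 nM DNA, 50 mM HEPES pH 8.0, 50 mM NaCl, 1 mM MnCl2, 1 h, 37 °C, three replicates). Uncut DNA was amplified and sequenced.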

[2] = system: T2, Rep nickase domain of banana bunchy top virus
T2 sequence (residues 1-94 of Rep, tag left off): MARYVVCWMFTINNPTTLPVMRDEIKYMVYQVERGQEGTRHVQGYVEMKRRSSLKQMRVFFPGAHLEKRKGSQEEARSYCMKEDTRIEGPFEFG
Experimental: as §1

[3] = system: T3, Rep nickase domain of cabbage leaf curl virus
T3 sequence (residues 1-116 of Rep, tag left off): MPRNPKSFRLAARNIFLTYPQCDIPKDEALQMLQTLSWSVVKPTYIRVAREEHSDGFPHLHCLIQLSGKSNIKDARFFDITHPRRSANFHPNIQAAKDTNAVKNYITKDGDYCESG
Experimental: as §1

[4] = system: T4, Rep nickase domain of chickpea chlorotic dwarf virus
T4 sequence (residues 1-124 of Rep, tag left off): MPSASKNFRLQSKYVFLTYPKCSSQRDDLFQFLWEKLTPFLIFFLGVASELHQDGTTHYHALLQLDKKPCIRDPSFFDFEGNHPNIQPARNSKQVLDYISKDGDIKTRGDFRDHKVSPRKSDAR
Experimental: as §1

[5] = system: T5, Rep nickase domain of faba bean necrotic yellows virus
T5 sequence (residues 1-98 of Rep, tag left off): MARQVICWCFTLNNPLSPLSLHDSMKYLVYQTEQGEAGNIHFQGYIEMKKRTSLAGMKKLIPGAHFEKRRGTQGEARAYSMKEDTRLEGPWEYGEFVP
Experimental: as §1

[6] = system: T6, Rep nickase domain of maize striate mosaic virus
T6 sequence (residues 1-117 of Rep, tag left off): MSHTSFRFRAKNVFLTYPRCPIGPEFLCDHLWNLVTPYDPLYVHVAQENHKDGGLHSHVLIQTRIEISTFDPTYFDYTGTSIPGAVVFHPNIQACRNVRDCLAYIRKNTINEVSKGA
Experimental: as §1

[7] = system: T7, Rep nickase domain of porcine circovirus 2
T7 sequence (residues 2-116 of Rep, tag left off): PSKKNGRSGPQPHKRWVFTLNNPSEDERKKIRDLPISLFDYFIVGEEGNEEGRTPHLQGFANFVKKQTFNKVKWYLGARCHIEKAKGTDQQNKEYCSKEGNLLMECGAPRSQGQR
Experimental: as §1

[8] = system: T8, Rep nickase domain of tomato golden mosaic virus
T8 sequence (residues 1-124 of Rep, tag left off): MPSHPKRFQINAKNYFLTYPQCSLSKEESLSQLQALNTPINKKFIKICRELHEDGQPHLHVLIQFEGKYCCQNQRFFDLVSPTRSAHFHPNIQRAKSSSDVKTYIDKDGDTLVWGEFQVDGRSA
Experimental: as §1

[9] = system: T9, Rep nickase domain of tomato yellow leaf curl virus
T9 sequence (residues 1-136 of Rep, tag left off): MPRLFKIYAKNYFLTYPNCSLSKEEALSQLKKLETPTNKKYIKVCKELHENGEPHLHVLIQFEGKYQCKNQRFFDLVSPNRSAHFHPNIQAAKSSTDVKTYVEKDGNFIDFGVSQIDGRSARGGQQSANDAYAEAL
Experimental: as §1

[10] = system: T10, Rep nickase domain of wheat dwarf virus
T10 sequence (residues 1-137 of Rep, tag left off): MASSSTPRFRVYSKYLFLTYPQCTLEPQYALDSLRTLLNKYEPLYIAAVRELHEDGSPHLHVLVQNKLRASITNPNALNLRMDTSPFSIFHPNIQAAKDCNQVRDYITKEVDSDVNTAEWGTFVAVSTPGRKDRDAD
Experimental: as §1

Sequence	uncleaved DNA left (log2) [1]	uncleaved DNA left (log2) [2]	uncleaved DNA left (log2) [3]	uncleaved DNA left (log2) [4]	uncleaved DNA left (log2) [5]	uncleaved DNA left (log2) [6]	uncleaved DNA left (log2) [7]	uncleaved DNA left (log2) [8]	uncleaved DNA left (log2) [9]	uncleaved DNA left (log2) [10]
CGGTCGA	-0.0329	0.0528	-0.244	-0.275	0.0179	-0.535	0.0569	-0.11	0.0768	-0.00757
TACATGG	0.104	0.0187	-0.015	0.158	-0.082	-0.433	0.0782	0.0626	-0.0404	0.0152
CGCGAAA	-0.0354	-0.117	-0.303	-0.261	-0.06	-0.647	0.0207	-0.0479	0.0306	-0.0462
CTTATTA	-0.0823	0.0696	0.00952	-1.1	0.0612	-0.485	-0.246	-0.0219	0.119	0.0612
CTTGTCA	-0.105	0.0756	0.121	-0.65	-0.153	-0.481	-0.0663	-0.0707	0.208	0.033
TATTTCA	-3.15	-1.86	0.0516	-2.15	0.064	-0.431	-2.59	0.0402	0.164	0.0869
ACTGGCA	0.165	0.183	-0.13	0.187	0.182	-0.211	0.149	0.195	0.166	0.202
AACCTGT	-0.044	-0.0272	0.0362	-0.412	0.0203	0.406	-0.275	-0.0403	-0.114	-0.142
GGAGGAA	0.0863	0.0825	0.671	1.56	0.0398	2	0.196	0.209	0.00587	0.147
ATTGTGA	0.00725	-0.0852	-0.752	-0.363	0.0154	-0.974	0.0891	-0.159	-0.0341	-0.151
TCAATCC	0.0633	0.0109	-0.00847	0.178	0.0192	0.673	0.0489	-0.0926	0.0886	0.033
GAGACGG	0.0247	0.119	0.272	1.19	-0.0115	1.9	0.147	0.0958	0.0636	0.106
TCATCAT	-0.227	0.111	-0.0193	-0.693	-0.0653	-0.257	-0.351	0.00225	0.116	0.0345
GAGTATT	-2.36	-2.67	-1.63	-1.82	-2.81	1.11	-3.08	-0.973	0.194	-0.481
GGAGCTC	0.0764	0.209	0.625	1.38	0.155	1.89	0.121	0.0213	0.151	0.107
CGTTTAA	0.0741	0.0962	0.0406	-0.0139	0.0196	-0.184	0.0446	-0.0276	0.0205	0.0237
TTATATA	-0.222	0.0191	0.129	-1.23	0.048	0.0543	-0.25	0.0109	0.0602	0.105
CCTTATA	-0.03	0.0548	0.0567	-1.38	-0.137	-0.588	-0.0622	0.111	0.103	0.0443
TTCTATC	-0.0479	-0.0219	0.204	0.0558	-0.151	-0.333	0.0445	-0.181	0.024	0.0772
ACACTGT	0.0392	-0.109	-0.521	-0.759	-0.0624	-0.891	0.099	-0.0218	-0.0843	-0.0968

Sequence	uncleaved DNA left (log2) [1]	uncleaved DNA left (log2) [2]	uncleaved DNA left (log2) [3]	uncleaved DNA left (log2) [4]	uncleaved DNA left (log2) [5]	uncleaved DNA left (log2) [6]	uncleaved DNA left (log2) [7]	uncleaved DNA left (log2) [8]	uncleaved DNA left (log2) [9]	uncleaved DNA left (log2) [10]
ATGCTCG	0.0212	-0.0534	-0.658	-0.523	0.0104	-0.926	0.173	-0.0227	-0.0443	-0.0944
GAAAAGT	0.119	0.121	-0.069	-1.06	0.0478	-0.0127	-0.0555	-0.00308	0.0392	0.0091
CCAATGC	-0.0464	0.16	-0.584	-0.276	0.0919	-1.25	0.208	0.0711	0.218	0.0443
TTTGCTG	0.118	0.107	-0.0893	-0.0188	0.0924	-0.358	0.178	-0.0532	0.0839	0.0853
ATGACAA	-0.0845	0.0265	0.166	0.618	0.0333	0.298	0.0347	-0.1	0.00173	0.108
GGTCACT	-0.0187	-0.0113	0.601	1.3	-0.0523	2.03	-0.0458	0.0359	0.0499	0.0492
AGCTGGT	0.0431	0.054	0.273	1.05	0.0509	1.37	-0.842	0.1	0.0332	0.042
CATGGGT	0.0574	0.0469	0.13	1.16	0.0117	1.27	0.13	0.137	-0.0324	0.0748
GGTTCAG	0.0367	0.0843	0.617	1.31	0.0378	1.33	0.233	0.0784	0.116	0.171
AAGCGCG	-0.0905	-0.019	-0.715	-0.246	0.0676	-0.802	0.0533	0.0216	0.0738	-0.107
GGTCCGA	0.0555	0.0536	0.719	1.62	0.0231	1.91	0.231	-0.0614	0.117	0.149
GGCTAAG	0.16	0.159	-0.0225	0.0871	0.138	-0.244	0.243	0.0932	0.21	0.0503
TCCCTGA	0.191	-0.0075	0.285	0.0976	0.0523	0.0381	-0.0314	0.123	0.0715	0.147
GCGGAAA	-0.0382	0.123	0.49	1.33	0.0332	1.48	0.0929	-0.0671	-0.0223	-0.0112
GGCAAAG	0.31	0.309	0.266	0.588	0.12	0.144	0.281	0.258	0.148	0.354
CCTCACG	-0.0821	0.0321	-0.806	-0.188	0.0151	-1	-0.0324	-0.184	-0.0712	-0.186
AATTCAC	-0.104	0.0153	-0.0705	-0.461	0.00391	-0.945	-0.36	-0.0232	0.0673	0.122
TGCGGGG	0.138	-0.0746	0.285	0.564	0.00254	1.05	0.0637	0.0998	-0.117	-0.0829
TGCCTTG	-0.125	-0.0923	-0.159	-0.788	-0.0282	-0.552	0.0621	0.0448	-0.0484	0.00407
GGGACGG	0.0668	0.171	0.986	2.05	0.0425	2.41	0.324	0.145	0.0491	0.182

Sequence	uncleaved DNA left (log2) [1]	uncleaved DNA left (log2) [2]	uncleaved DNA left (log2) [3]	uncleaved DNA left (log2) [4]	uncleaved DNA left (log2) [5]	uncleaved DNA left (log2) [6]	uncleaved DNA left (log2) [7]	uncleaved DNA left (log2) [8]	uncleaved DNA left (log2) [9]	uncleaved DNA left (log2) [10]
TCGAACT	-0.0456	-0.0668	-0.0146	-2.05	-0.0835	-0.0435	-0.534	-0.125	-0.00607	0.0696
GCACCCG	0.0147	0.0946	-0.679	-0.591	0.0427	-0.879	-0.113	-0.0447	-0.0478	-0.0454
GGTCGAG	0.114	0.0308	0.856	1.82	-0.0674	2	0.183	0.118	0.0747	0.116
TGTTCTA	0.0371	0.0485	0.262	0.254	0.054	0.983	-0.124	0.0385	0.156	0.0487
TTGTAAT	-2.95	-0.72	0.2	-0.887	-1.1	-0.272	-3.12	0.0531	0.191	0.124
CCAGTAC	0.034	0.0297	-0.0583	-0.615	-0.0477	-0.671	-0.0245	0.0382	-0.0752	-0.0817
TATTAGT	-3.96	-3.68	-2.34	-2.66	-0.506	-1.19	-3.59	-0.569	0.109	-0.763
ATACACC	-0.0671	-0.0331	-0.0876	-0.806	0.027	-0.672	-0.166	-0.0949	-0.104	-0.0719
CGTCCTG	-0.101	-0.11	-0.0921	0.405	-0.0792	1.01	-0.0549	-0.178	-0.0741	0.0398
ACAGGAA	0.0544	-0.0709	0.0631	0.774	-0.0523	0.248	0.137	0.0386	-0.0418	0.07
AGACCGC	0.118	0.0551	0.604	0.937	0.145	1.2	0.159	-0.0585	0.162	0.209
AAAGTAG	0.0942	0.0334	-0.63	-0.489	0.0219	-1.2	0.236	0.0317	0.0943	-0.0636
AACGGGT	0.0872	0.0461	0.352	1.48	-0.0693	1.82	0.225	0.152	-0.0127	-0.0188
AACACAC	-0.0146	0.00409	-0.14	-0.505	0.065	-0.834	0.1	-0.0399	-0.0922	0.0209
GTCTCTT	-0.36	-0.0912	0.269	0.35	-0.0556	1.6	-1.33	-0.175	-0.0726	-0.0258
AACAGAC	-0.122	-0.0449	-0.0108	0.0284	-0.0328	-0.668	0.079	-0.0988	-0.147	-0.0344
TTAGGTA	-0.0202	-0.0515	0.399	1.02	-0.0687	1.47	0.0467	0.0552	-0.0963	0.0334
CCGCTGA	-0.014	-0.117	0.229	0.655	-0.124	0.845	0.0589	-0.168	-0.0287	0.0309
TGGGCAG	0.0335	0.07	0.857	1.83	0.0742	2.09	0.256	0.0886	-0.00293	0.165
GCAGGTG	-0.131	-0.0959	-0.431	-0.257	-0.0192	-0.768	0.156	0.0735	-0.149	-0.152
